# Assay results reported in the supplement of paper PMC8728848.
# The other results are listed elsewhere or left out.
# B1: Sebin1 (Coprinopsis cinerea), A8PEE3 (protein)
# chain: MTSPFYAHIHNVQDDNTWRFTLIFANRATADEWWRAISEAPANTSIAKSITRVTPQYYTHDVNIWNIWNFFADGNIKSISERFRGRLFIVLENDRGGRGITVIPPVPIVDHVSGNWFYIRSKTAPHLFWYYDERRSSIYASKEKRTRFKISIRNPSSQTPKNAIMINTDDVTIHIKENLYVGVDNNLGHIIPTRAYRTFKFGELESGAIAGFDVVENIEERCSSTFDGASLSISGPDSSSPGEPWELV
# Legend:
# Test in all cases: glycan array binding signal (z-score within array); higher = stronger binding
# Settings in all cases: glycan notation: IUPAC condensed, linker removed
# [1] = molecular target: Neu5Ac(a2-3)Gal(b1-3)GlcNAc(b1-6)GalNAc
# Outline: (§1)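 From the Consortium for Functional Glycomics database, 3228 arrays were curated, keeping only those whose protein sequence was available. Binding is given as a within-array Z-score averaged across arrays sharing a protein sequence and across linkers. Negative Z-scores can be read as non-binding.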
# [2] = molecular target: Neu5Ac(a2-3)Gal(b1-3)GlcNAc6S
# Outline: as §1
# [3] = molecular target: Neu5Ac(a2-3)Gal(b1-3)[Fuc(a1-4)]GlcNAc
# Outline: as §1
# [4] = molecular target: Neu5Ac(a2-3)Gal(b1-3)[Fuc(a1-4)]GlcNAc(b1-3)Gal(b1-3)[Fuc(a1-4)]GlcNAc
# Outline: as §1
# [5] = molecular target: Neu5Ac(a2-3)Gal(b1-3)[Fuc(a1-4)]GlcNAc(b1-3)Gal(b1-4)[Fuc(a1-3)]GlcNAc
# Outline: as §1
# [6] = molecular target: Neu5Ac(a2-3)Gal(b1-3)[GlcNAc(b1-6)]GalNAc
# Outline: as §1
# [7] = molecular target: Neu5Ac(a2-3)Gal(b1-3)[Neu5Ac(a2-6)]GalNAc
# Outline: as §1
# [8] = molecular target: Neu5Ac(a2-3)Gal(b1-3)[Neu5Ac(a2-6)]GlcNAc(b1-3)[Fuc(a1-3)[Gal(b1-4)]GlcNAc(b1-6)]Gal(b1-4)Glc
# Outline: as §1
# [9] = molecular target: Neu5Ac(a2-3)Gal(b1-3)]Neu5Ac(a2-3)Gal(b1-4)]GlcNAc
# Outline: as §1
# Neu5Ac(a2-3)Gal(b1-4)Glc = molecular target: Neu5Ac(a2-3)Gal(b1-4)Glc
# Outline: as §1
# [10] = molecular target: Neu5Ac(a2-3)Gal(b1-4)GlcNAc
# Outline: as §1
# [11] = molecular target: Neu5Ac(a2-3)Gal(b1-4)GlcNAc(b1-2)Man
# Outline: as §1
# [12] = molecular target: Neu5Ac(a2-3)Gal(b1-4)GlcNAc(b1-2)Man(a1-3)[GlcNAc(b1-4)][Neu5Ac(a2-3)Gal(b1-4)GlcNAc(b1-2)Man(a1-6)]Man(b1-4)GlcNAc(b1-4)GlcNAc
# Outline: as §1
# [13] = molecular target: Neu5Ac(a2-3)Gal(b1-4)GlcNAc(b1-2)Man(a1-3)[Neu5Ac(a2-3)Gal(b1-4)GlcNAc(b1-2)Man(a1-6)]Man(b1-4)GlcNAc(b1-4)GlcNAc
# Outline: as §1
# [14] = molecular target: Neu5Ac(a2-3)Gal(b1-4)GlcNAc(b1-2)Man(a1-3)[Neu5Ac(a2-3)Gal(b1-4)GlcNAc(b1-2)Man(a1-6)]Man(b1-4)GlcNAc(b1-4)[Fuc(a1-6)]GlcNAc
# Outline: as §1
# [15] = molecular target: Neu5Ac(a2-3)Gal(b1-4)GlcNAc(b1-2)Man(a1-3)[Neu5Ac(a2-6)Gal(b1-4)GlcNAc(b1-2)Man(a1-6)]Man(b1-4)GlcNAc(b1-4)GlcNAc
# Outline: as §1
# [16] = molecular target: Neu5Ac(a2-3)Gal(b1-4)GlcNAc(b1-2)[Neu5Ac(a2-3)Gal(b1-4)GlcNAc(b1-4)]Man(a1-3)[GlcNAc(b1-4)][Neu5Ac(a2-3)Gal(b1-4)GlcNAc(b1-2)[Neu5Ac(a2-3)Gal(b1-4)GlcNAc(b1-6)]Man(a1-6)]Man(b1-4)GlcNAc(b1-4)GlcNAc
# Outline: as §1
# [17] = molecular target: Neu5Ac(a2-3)Gal(b1-4)GlcNAc(b1-2)[Neu5Ac(a2-3)Gal(b1-4)GlcNAc(b1-4)]Man(a1-3)[GlcNAc(b1-4)][Neu5Ac(a2-3)Gal(b1-4)GlcNAc(b1-4)Man(a1-6)]Man(b1-4)GlcNAc(b1-4)GlcNAc
# Outline: as §1
# [18] = molecular target: Neu5Ac(a2-3)Gal(b1-4)GlcNAc(b1-2)[Neu5Ac(a2-3)Gal(b1-4)GlcNAc(b1-6)]Man(a1-6)[Neu5Ac(a2-3)Gal(b1-4)GlcNAc(b1-2)Man(a1-3)][GlcNAc(b1-4)]Man(b1-4)GlcNAc(b1-4)GlcNAc
# Outline: as §1
# [19] = molecular target: Neu5Ac(a2-3)Gal(b1-4)GlcNAc(b1-3)Gal
# Outline: as §1
# [20] = molecular target: Neu5Ac(a2-3)Gal(b1-4)GlcNAc(b1-3)Gal(b1-3)GlcNAc
# Outline: as §1
# [21] = molecular target: Neu5Ac(a2-3)Gal(b1-4)GlcNAc(b1-3)Gal(b1-4)GlcNAc
# Outline: as §1
# [22] = molecular target: Neu5Ac(a2-3)Gal(b1-4)GlcNAc(b1-3)Gal(b1-4)GlcNAc(b1-2)Man(a1-3)[Neu5Ac(a2-3)Gal(b1-4)GlcNAc(b1-3)Gal(b1-4)GlcNAc(b1-2)Man(a1-6)]Man(b1-4)GlcNAc(b1-4)GlcNAc
# Outline: as §1
# [23] = molecular target: Neu5Ac(a2-3)Gal(b1-4)GlcNAc(b1-3)Gal(b1-4)GlcNAc(b1-3)Gal(b1-4)GlcNAc
# Outline: as §1
# [24] = molecular target: Neu5Ac(a2-3)Gal(b1-4)GlcNAc(b1-3)Gal(b1-4)GlcNAc(b1-3)Gal(b1-4)GlcNAc(b1-2)Man(a1-3)[Neu5Ac(a2-3)Gal(b1-4)GlcNAc(b1-3)Gal(b1-4)GlcNAc(b1-3)Gal(b1-4)GlcNAc(b1-2)Man(a1-6)]GalNAc
# Outline: as §1
# [25] = molecular target: Neu5Ac(a2-3)Gal(b1-4)GlcNAc(b1-3)Gal(b1-4)GlcNAc(b1-3)GalNAc
# Outline: as §1
# [26] = molecular target: Neu5Ac(a2-3)Gal(b1-4)GlcNAc(b1-3)Gal(b1-4)GlcNAc(b1-3)[Neu5Ac(a2-3)Gal(b1-4)GlcNAc(b1-3)Gal(b1-4)GlcNAc(b1-6)]GalNAc
# Outline: as §1
# [27] = molecular target: Neu5Ac(a2-3)Gal(b1-4)GlcNAc(b1-3)Gal(b1-4)GlcNAc(b1-6)[Gal(b1-3)]GalNAc
# Outline: as §1
# [28] = molecular target: Neu5Ac(a2-3)Gal(b1-4)GlcNAc(b1-3)Gal(b1-4)[Fuc(a1-3)]GlcNAc
# Outline: as §1
# [29] = molecular target: Neu5Ac(a2-3)Gal(b1-4)GlcNAc(b1-3)GalNAc
# Outline: as §1
binder,measurement,setting,value
B1,glycan array binding signal (z-score),[1],-0.335
same,glycan array binding signal (z-score),[2],-0.146
same,glycan array binding signal (z-score),[3],-0.733
same,glycan array binding signal (z-score),[4],0.376
same,glycan array binding signal (z-score),[5],-0.358
same,glycan array binding signal (z-score),[6],-0.264
same,glycan array binding signal (z-score),[7],-0.336
same,glycan array binding signal (z-score),[8],-0.727
same,glycan array binding signal (z-score),[9],-0.267
same,glycan array binding signal (z-score),Neu5Ac(a2-3)Gal(b1-4)Glc,3.86
same,glycan array binding signal (z-score),[10],-0.825
same,glycan array binding signal (z-score),[11],1.15
same,glycan array binding signal (z-score),[12],-0.182
same,glycan array binding signal (z-score),[13],-0.723
same,glycan array binding signal (z-score),[14],-0.34
same,glycan array binding signal (z-score),[15],0.208
same,glycan array binding signal (z-score),[16],-0.063
same,glycan array binding signal (z-score),[17],-0.161
same,glycan array binding signal (z-score),[18],-0.093
same,glycan array binding signal (z-score),[19],-0.176
same,glycan array binding signal (z-score),[20],-0.415
same,glycan array binding signal (z-score),[21],-0.525
same,glycan array binding signal (z-score),[22],-0.107
same,glycan array binding signal (z-score),[23],-0.018
same,glycan array binding signal (z-score),[24],-0.305
same,glycan array binding signal (z-score),[25],-0.167
same,glycan array binding signal (z-score),[26],0.416
same,glycan array binding signal (z-score),[27],0.023
same,glycan array binding signal (z-score),[28],0.176
same,glycan array binding signal (z-score),[29],-0.212
